Experimental data: the supplement of paper PMC3334620
Over roughly 33,000 sequences, “E-score (-0.5 to 0.5)” has its median near -0.035; the highest 2% begin near 0.34. The list shows a part of the results.

molecular target: T1, Mot3 (UniProt P54785); experiment: PBM E-score (8-mer binding enrichment) (E-score (-0.5 to 0.5)); higher = stronger / more preferred TF binding; most listed sequences are background and not binding sites; conditions: protein concentration: 200 nM; construct: GST-full length
T1 sequence: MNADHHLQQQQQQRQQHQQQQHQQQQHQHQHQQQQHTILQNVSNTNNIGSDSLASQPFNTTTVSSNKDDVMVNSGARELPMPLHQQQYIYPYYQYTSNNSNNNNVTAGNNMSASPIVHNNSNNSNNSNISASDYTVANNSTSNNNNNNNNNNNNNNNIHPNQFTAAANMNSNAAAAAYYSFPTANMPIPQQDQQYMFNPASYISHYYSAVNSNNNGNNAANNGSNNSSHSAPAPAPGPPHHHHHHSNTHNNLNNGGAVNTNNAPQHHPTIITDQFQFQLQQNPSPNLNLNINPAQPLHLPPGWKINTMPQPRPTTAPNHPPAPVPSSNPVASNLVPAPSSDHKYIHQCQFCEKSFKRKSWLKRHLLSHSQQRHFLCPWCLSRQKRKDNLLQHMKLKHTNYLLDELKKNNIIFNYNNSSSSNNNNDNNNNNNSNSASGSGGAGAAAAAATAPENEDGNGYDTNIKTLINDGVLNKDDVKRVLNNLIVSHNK
Summary of the method: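 Yeast transcription factors carrying a GST tag, as full-length proteins or DNA-binding domains, were produced by PURExpress in vitro transcription/translation. About 100-200 nM protein was applied to universal all-10-mer Agilent arrays, double-stranded by primer extension on fresh or once-stripped slides. Bound protein was detected with fluorescent anti-GST, and scans were normalised with masliner. The Universal PBM Analysis Suite gave each ungapped eight-base word, pooled with its reverse complement, an E-score, a modified Wilcoxon-Mann-Whitney statistic.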

Sequence | PBM E-score
TAAAATCA | 0.135
CGACCGCC | -0.228
CGGGCACA | 0.0796
GCCGATAA | -0.144
CTCCAGGA | 0.0168
CACGGAGA | -0.201
AACATGTT | 0.387
GGAGCAAA | -0.0479
ACGGCGGG | -0.205
CGGGGCGC | -0.33
CCAAACCC | -0.198
AACAGGCC | 0.234
ATGTAATG | 0.395
TTCAGAAA | 0.088
CAAGCCTC | -0.0949
CGCTCTAC | 0.105
TATTGGAA | -0.00815
ACTTTACA | 0.313
AGGCTCGG | 0.146
ATTGCCGG | -0.186
CAGCGCAC | -0.224
CCCGACTA | -0.0141
CGGATAAA | 0.066
GCAGGGGC | 0.0422
GTCTGATA | 0.0245

Sequence | PBM E-score
AGAAACCG | -0.0436
CCTGCTCG | 0.0299
CTCGACGA | -0.346
CTCAGGGA | -0.251
GCCAATCC | -0.281
AAAGTAGA | 0.00818
GCACTGGA | -0.195
GATCGCTA | -0.156
ATGCGGCA | -0.115
CCATCCGA | -0.108
ATTTGACA | 0.142
ATAATCAA | -0.0764
TCGGGAAA | -0.064
GTCTAATA | 0.212
TATGATAA | 0.142
AAACGCAT | 0.0226
CTAAGGGC | -0.149
GCAATTTA | 0.182
AGAGTGCC | 0.198
CGGCGGAG | -0.219
CTGTGATC | -0.157
ACCGGAAA | -0.0696
GGATTTAA | -0.0105
TCCCCCAA | -0.254
TGGCGGAA | -0.0954

Sequence | PBM E-score
GCCCATAC | 0.0461
AAATCTAT | -0.00436
ATAGGTGA | -0.0643
CTACTCGC | -0.0425
CCGACCAG | -0.153
TGCTGCAA | 0.0627
AAGCCAGG | -0.00322
ATCCCCGC | -0.161
GATTATAC | -0.126
CTGGTGCA | -0.2
CATGACTC | -0.133
CCGGAACC | -0.239
CAGAGCAA | 0.0904
CAGCCAGC | -0.264
ATAAGACC | -0.148
GGCGTCCC | -0.317
ATAATCTA | 0.0717
CGCCCTAA | -0.042
GACACCAA | -0.0329
CTGTCCCC | -0.296
ACCGGCCT | -0.0904
CGCCGGAA | -0.224
AACCTTGA | 0.146
TATAGCAA | 0.0534
CAGAAGTC | -0.17

Sequence | PBM E-score
CTTTAATC | -0.0933
GACTGTCA | -0.16
CAAGGGAA | -0.0253
CATACGTC | -0.0712
GTCTTAAA | -0.131
ACCGCGCC | -0.204
AGTGAACC | -0.0253
CACGAAAG | 0.107
AATTCGTG | 0.131
ATGCACAC | 0.0744
CGAACTTC | 0.00147
CAAAGCGA | -0.0399
CCTTGCTC | -0.214
CATGATAG | 0.0665
AACGAGAG | -0.0181
TAGAGCTA | 0.00065
CTTTGTTC | 0.207
GGCGCCTA | 0.306
AATACGGA | 0.0887
GGTCTCAC | -0.0183
ATGGTACG | 0.0336
CCCACGGA | -0.329
AGATTAAT | 0.0372
AAGGGTGT | 0.0514
GAATAATC | -0.074

Sequence | PBM E-score
CTCGGACC | -0.314
GTCTACAA | 0.0985
AGACCCAG | -0.153
ACCCGCCA | -0.115
ACCCCAGA | -0.22
AGCTGCCG | -0.18
GTCTGAAA | -0.0119
AACCGTAA | 0.0256
CAGATTAA | 0.021
CAGCCTGC | -0.106
CTAAGCGC | -0.0175
CCGTTCCG | -0.278
CGATGTAC | 0.103
ACAAGCAA | 0.174
AAGGACGG | -0.217
CTCAAAAA | -0.0872
AAACTAGG | 0.0841
GCCCGTAC | -0.169
CCACAAAC | -0.0354
AGCCCTCA | -0.195
GTTGAACA | 0.106
GGTCCCCA | -0.293
CGTTCCAA | 0.0171
TAAGAAAA | 0.0531
ATTTCAGA | -0.0309

Sequence | PBM E-score
CGCAACGA | 0.217
AACTTCGG | -0.00811
GTTTCATA | -0.0759
CAGATGCG | -0.0256
TTCGGCAA | 0.0952
CTACGATC | 0.0144
ACATTTAC | 0.334
CGGCGTAG | -0.0549
ACAATTGC | 0.0275
ACCGGGTC | -0.0798
ACTGGTAT | -0.162
CTTTATAA | 0.216
ACTCGACA | -0.0199
CTCTGTCA | 0.00291
CTAAAGGC | 0.35
CGTTTTTA | 0.188
GGGCATAC | -0.186
ATTCAGAC | -0.0183
CCTAGTGA | -0.0745
GGTCTGCA | -0.245
ATTTCGGG | -0.133
AAAGGGAC | -0.104
CGCTACGC | -0.174
ACGCTCAT | 0.0274
CCATTTAG | 0.0168

Sequence | PBM E-score
ATCCTGGG | -0.241
CCGATTAG | -0.156
AACATAAC | 0.294
ACGGAAGG | 0.0584
CTCGGTTA | -0.0778
TCTTGTAA | 0.33
CACCTGGA | 0.159
CTGTCCAA | -0.158
GGTCTGAC | -0.242
CTTACTTC | -0.071
CGAAAGTA | 0.0648
GACTCGGA | -0.41
CCATTTCG | -0.173
GGGCGCCA | -0.265
CCACCCTA | -0.0726
CCTACGAG | 0.177
CCTAGAGA | -0.145
GATGCTCC | -0.1
GCAGCTGC | -0.127
TCGGCGCA | 0.00234
AAAAACCC | 0.053
CTAGTGTA | 0.114
